These are yes or no findings as the source states them, for the method shown. Binding seen in cells or lysates may run through a third protein. Some binding calls cover weakened binding; strength is not graded here.
Legend:
HA-Hax1 = HA-Hax1 (UniProt O00165); assay: co-IP; HEK293T cells transfected with Myc- or HA-tagged proteins, NP40 lysis buffer (1% NP40, 20 mM Tris-HCl pH 8.0, 0.8% NaCl, 10% glycerol), HA-agarose beads overnight at 4 °C, immunoblot
[1] = biological target: Hax1 (endogenous) (human (endogenous in MCF7)) (UniProt O00165); assay: co-IP; endogenous proteins, Hax1 immunoprecipitates from MCF7 cells, immunoblot for IQGAP1 and Hax1

By UniProt entry, the sequences of proteins in these tests, tags left out. Where a name states a change or a piece, a line headed by the entry shows the natural chain unless it says otherwise.
UniProt O00165: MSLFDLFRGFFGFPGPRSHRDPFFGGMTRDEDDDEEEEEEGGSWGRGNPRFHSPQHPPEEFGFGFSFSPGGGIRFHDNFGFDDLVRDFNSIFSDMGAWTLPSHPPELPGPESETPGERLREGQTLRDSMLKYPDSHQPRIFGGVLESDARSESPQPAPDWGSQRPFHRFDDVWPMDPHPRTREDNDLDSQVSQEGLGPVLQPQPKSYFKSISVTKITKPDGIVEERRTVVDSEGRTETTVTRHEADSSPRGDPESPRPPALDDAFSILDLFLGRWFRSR
UniProt P46940: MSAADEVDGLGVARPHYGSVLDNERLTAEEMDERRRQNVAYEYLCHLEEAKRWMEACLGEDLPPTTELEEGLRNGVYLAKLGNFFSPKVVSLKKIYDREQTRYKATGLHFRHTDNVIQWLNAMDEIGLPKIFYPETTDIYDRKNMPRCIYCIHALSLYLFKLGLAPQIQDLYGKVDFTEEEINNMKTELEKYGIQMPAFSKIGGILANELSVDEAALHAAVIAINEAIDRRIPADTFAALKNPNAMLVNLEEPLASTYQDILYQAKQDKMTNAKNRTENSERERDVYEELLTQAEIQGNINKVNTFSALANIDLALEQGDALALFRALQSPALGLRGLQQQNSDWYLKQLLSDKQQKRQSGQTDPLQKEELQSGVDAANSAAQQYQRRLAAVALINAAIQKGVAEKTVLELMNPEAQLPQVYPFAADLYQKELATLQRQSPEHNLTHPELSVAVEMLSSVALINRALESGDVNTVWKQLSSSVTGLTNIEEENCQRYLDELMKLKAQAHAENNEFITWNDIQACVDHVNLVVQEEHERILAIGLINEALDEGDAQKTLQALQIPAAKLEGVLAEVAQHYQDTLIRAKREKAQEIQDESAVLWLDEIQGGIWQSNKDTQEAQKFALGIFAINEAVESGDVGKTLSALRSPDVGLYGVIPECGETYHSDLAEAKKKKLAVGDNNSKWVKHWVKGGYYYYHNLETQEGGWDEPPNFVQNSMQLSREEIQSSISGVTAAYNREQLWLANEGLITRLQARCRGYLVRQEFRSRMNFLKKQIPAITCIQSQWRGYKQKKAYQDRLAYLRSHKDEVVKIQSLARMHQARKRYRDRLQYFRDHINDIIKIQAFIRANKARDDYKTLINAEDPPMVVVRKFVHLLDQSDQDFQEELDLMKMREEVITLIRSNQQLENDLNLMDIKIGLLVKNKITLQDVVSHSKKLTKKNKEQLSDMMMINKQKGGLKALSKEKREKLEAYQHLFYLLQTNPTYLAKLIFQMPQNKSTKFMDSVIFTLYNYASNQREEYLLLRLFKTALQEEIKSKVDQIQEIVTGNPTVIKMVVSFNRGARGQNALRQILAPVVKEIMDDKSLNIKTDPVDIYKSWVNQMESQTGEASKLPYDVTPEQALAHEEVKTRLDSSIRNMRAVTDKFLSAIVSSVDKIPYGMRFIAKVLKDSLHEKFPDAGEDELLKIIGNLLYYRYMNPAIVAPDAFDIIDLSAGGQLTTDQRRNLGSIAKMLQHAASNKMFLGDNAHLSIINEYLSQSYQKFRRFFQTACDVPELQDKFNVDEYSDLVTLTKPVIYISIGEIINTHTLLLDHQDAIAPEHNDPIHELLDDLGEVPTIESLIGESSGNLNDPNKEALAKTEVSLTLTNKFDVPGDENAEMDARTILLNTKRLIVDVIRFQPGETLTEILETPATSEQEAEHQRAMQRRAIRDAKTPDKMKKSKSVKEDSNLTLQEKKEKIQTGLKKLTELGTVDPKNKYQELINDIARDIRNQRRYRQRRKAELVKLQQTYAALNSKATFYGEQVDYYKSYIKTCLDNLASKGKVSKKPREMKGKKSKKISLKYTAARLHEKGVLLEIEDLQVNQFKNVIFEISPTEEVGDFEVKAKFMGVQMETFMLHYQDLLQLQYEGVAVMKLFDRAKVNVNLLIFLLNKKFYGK

Row | Substance | binding (HA-Hax1) | binding [1]
1 | Myc-IQGAP1 (pcDNA3-Myc-IQGAP1, full length) (from UniProt P46940 1-1657) | binds | 
2 | IQGAP1 N-terminal (residues 1-863) (from UniProt P46940 1-863) (domain or fragment) | no binding | 
3 | IQGAP1 C-terminal (residues 864-1657) (from UniProt P46940 864-1657) (domain or fragment) | binds | 

Results, then the substance that gave them:

Row | binding (HA-Hax1) | binding [1] | Substance
4 | binds |  | IQGAP1 RGCT domain (residues 1276-1657) (from UniProt P46940 1276-1657) (domain or fragment)
5 | no binding |  | IQGAP1 GRD domain (residues 1025-1238) (from UniProt P46940 1025-1238) (domain or fragment)
6 |  | binds | IQGAP1 (endogenous) (from UniProt P46940 1-1657)

From article PMC10364419
